{
  "source": "paper PMC7706265",
  "key": {"[1]": {"target": "T1, GST-tagged FNIII domain of mouse ATF7IP (mouse) (UniProt Q7TT18)", "T1 sequence": "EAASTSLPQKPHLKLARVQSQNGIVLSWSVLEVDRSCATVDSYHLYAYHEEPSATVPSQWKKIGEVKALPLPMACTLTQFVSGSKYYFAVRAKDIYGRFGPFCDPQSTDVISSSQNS", "experiment": "pull-down; recombinant GST or GST-FNIII domain with lysates of HEK293T cells transiently transfected with V5-ZMYM2 WT or FAM1&2 Mut; pulled-down samples analysed by western blot; only the target purified"}, "[2]": {"target": "T2, 3xFLAG-tagged ATF7IP dFNIII mutant (transiently expressed in HEK293T cells) (mouse) (UniProt Q7TT18)", "T2 sequence": "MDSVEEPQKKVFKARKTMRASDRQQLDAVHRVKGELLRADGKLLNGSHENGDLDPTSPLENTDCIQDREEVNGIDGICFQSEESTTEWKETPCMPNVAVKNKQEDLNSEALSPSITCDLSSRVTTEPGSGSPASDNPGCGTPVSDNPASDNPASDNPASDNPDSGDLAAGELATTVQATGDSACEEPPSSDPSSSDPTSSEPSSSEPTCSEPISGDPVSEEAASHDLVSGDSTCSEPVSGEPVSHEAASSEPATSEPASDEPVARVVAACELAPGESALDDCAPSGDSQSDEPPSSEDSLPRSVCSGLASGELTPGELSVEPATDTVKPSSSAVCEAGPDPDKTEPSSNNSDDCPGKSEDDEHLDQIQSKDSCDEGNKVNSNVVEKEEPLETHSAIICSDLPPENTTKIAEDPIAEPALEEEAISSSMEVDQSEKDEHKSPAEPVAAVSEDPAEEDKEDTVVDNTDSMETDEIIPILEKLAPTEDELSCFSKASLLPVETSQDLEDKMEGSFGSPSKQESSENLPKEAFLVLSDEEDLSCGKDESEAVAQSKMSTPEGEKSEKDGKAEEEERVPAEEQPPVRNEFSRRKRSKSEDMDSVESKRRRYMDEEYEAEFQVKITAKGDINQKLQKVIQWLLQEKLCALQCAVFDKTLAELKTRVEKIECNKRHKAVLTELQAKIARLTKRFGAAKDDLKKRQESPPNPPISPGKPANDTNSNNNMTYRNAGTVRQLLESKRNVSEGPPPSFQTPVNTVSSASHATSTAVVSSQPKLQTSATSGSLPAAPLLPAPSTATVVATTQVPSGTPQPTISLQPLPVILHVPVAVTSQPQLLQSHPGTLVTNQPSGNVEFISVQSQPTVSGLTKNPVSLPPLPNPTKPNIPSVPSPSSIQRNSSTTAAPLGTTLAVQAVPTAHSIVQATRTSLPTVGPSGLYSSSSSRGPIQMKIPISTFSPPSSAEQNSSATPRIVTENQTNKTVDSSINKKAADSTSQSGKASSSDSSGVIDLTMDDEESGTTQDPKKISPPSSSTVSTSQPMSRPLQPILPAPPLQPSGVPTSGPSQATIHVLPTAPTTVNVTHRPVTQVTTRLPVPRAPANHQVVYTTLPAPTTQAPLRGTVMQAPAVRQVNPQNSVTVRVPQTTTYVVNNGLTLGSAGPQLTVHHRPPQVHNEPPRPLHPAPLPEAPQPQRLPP", "experiment": "co-IP; HEK293T cells transiently co-transfected with 3xFLAG-ATF7IP (WT or dFNIII) and V5-tagged proteins; precipitated with anti-FLAG M2 affinity gel, 4 °C; western blot; which lysis buffer was used is not said"}, "[3]": {"target": "T3, 3xFLAG-tagged ATF7IP WT (transiently expressed in HEK293T cells) (mouse) (UniProt Q7TT18)", "T3 sequence": "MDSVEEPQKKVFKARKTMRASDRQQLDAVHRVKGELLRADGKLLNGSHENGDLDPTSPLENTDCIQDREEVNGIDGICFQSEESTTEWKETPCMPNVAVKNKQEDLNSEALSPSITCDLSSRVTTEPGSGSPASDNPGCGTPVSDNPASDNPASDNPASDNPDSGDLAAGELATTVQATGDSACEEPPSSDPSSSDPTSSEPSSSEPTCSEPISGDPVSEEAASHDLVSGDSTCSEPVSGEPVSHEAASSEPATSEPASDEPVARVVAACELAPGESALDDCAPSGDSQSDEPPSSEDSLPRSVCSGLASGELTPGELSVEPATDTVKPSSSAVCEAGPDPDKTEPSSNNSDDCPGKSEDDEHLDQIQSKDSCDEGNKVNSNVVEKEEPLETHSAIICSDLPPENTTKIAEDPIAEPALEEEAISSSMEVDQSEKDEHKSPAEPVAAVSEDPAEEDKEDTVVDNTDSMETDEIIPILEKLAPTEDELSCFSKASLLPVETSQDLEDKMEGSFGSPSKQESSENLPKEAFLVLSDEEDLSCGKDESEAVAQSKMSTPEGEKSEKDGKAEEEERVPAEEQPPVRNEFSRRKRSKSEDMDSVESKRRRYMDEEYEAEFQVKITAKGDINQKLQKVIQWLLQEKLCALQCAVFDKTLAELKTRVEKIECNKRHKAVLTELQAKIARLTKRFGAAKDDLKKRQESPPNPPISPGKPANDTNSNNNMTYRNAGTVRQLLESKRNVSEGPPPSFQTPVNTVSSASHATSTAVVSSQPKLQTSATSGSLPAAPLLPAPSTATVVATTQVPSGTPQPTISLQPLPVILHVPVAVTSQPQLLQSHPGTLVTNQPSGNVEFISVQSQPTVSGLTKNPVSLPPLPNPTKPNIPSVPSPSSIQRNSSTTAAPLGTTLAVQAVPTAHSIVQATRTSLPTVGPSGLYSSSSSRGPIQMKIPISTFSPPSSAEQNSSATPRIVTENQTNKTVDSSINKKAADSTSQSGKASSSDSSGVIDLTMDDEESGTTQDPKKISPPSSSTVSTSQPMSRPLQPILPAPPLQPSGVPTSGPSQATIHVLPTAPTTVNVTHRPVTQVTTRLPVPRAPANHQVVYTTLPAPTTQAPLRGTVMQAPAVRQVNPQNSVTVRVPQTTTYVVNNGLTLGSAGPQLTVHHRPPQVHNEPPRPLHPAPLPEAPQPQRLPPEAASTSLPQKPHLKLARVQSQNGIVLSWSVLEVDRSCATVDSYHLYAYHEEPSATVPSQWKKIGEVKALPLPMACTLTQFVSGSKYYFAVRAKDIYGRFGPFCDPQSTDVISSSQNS", "experiment": "co-IP; HEK293T cells transiently co-transfected with 3xFLAG-ATF7IP (WT or dFNIII) and V5-tagged proteins; precipitated with anti-FLAG M2 affinity gel, 4 °C; western blot; which lysis buffer was used is not said"}},
  "note": "These are yes or no findings as the source states them, for the method shown. Binding seen in cells or lysates may run through a third protein. Some results given as binding are weak or reduced against the parent protein; the word gives no strength. Sequences can lack the tags named with a protein.",
  "data": [
    {"binder": "V5-tagged mouse ZMYM2 WT (protein, UniProt Q9CU65 1-1376) MDTSSVGTLELTDQTPVLLGSTAMATSLTNVGNSFSGPPNPLVSRSSKFQNSSVEDDDDVVFIEPVQPPPSSAPLVADQRPITFTSSKNEELQGNDPKILPSSKELAPQKGSVSETIVIDDEEDMETNQGQEKSSSNFIERRPSETKNRTNDVDFSSSTFSRSKVNAGVSNSGITTEPDSEIQIANVTTLETGVSSVSDGQLESTDGRDMNLMITHVTSLHNTSLGDGSNGLQSSNFGVNIQTYTPSLTSQTKAGVGPFNPGRMNVAGDVFQNGESAPHHNPDSWISQSASFPRNQKQQGVDSLSPVASLPKQIFQPSNQQPTKPVKVTCANCKKPLQKGQTAYQRKGSAHLFCSTTCLSSFSHKPAPKKLCVMCKKDITTMKGTIVAQVDSSESFQEFCSTSCLSLYEDKQSPAKGALNKSRCTICGKLTEIRHEVSFKNMTHKLCSDHCFNRYRMANGLIMNCCEQCGEYLPSKGAGNNVLVVDGQQKRFCCQSCVTEYKQVGSHPSFLKEVRDHMQDSFLMQPEKYGKLTTCTGCRTQCRFFDMTQCIGPNGYMEPYCSTACMNSHKTKYAKSQSLGIICHFCKRNSLPQYQATMPDGKLYNFCNSSCVAKFQALSMQSSPNGQFVAPSDIQLKCNYCKNSFCSKPEILEWENKVHQFCSKTCSDDYKKLHCIVTYCEYCQEEKTLHETVNFSGVKRPFCSEGCKLLYKQDFARRLGLRCVTCNYCSQLCKKGATKELDGVVRDFCSEDCCKKFQEWYYKAARCDCCKSQGTLKERVQWRGEMKHFCDQHCLLRFYCQQNEPNMTTQKGPENLHYDQGCQTSRTKMTGSAPPPSPTPNKEMKNKAILCKPLTMTKATYCKPHMQTKSCQTDENWKTEYVPVPIPVPVYVPVPMHMYSQNIPVPTTVPVPVPVPVFLPAPLDSSEKIPATVEDLKSKVSSDPLDSELLTMTDMMTEEEGKAEASNINSVIIETDIIGSDLTKNSDPDIQSNMPDVPYEPDLDIEIDFPRAAEELDMENEFLLPPVFGEEYEEQPRPRSKKKGTKRKAVSGYQSHDDSSDNSECSFPFKYTYGVNAWKHWVKTRQLDEDLLVLDELKSSKSVKLKEDLLSHTTAELNYGLAHFVNEIRRPNGENYAPDSIYYLCLGIQEYLCGSNRKDNIFIDPGYQMFEQELNKILRSWQPSILPDGSIFSRVEEDYLWRIKQLGSHSPVALLNTLFYFNTKYFGLKTVEQHLRLSFGTVFRHWKKNPLTMENKACLRYQVSSLCGTDNEDKIATGKRKHEDDEPVFEQVENTANPSRCPVKMFECYLSKSPQNLNQRMDVFYLQPECSSSTDSPVWYTSTSLDRNTLENMLVRVLLVKDIYDKDNYELDEDTD", "values": [
      {"measurement": "binding", "setting": "[1]", "result": "binds"},
      {"measurement": "binding", "setting": "[2]", "result": "no binding"},
      {"measurement": "binding", "setting": "[3]", "result": "binds"}
    ]}
  ]
}
